# Measured values: PubChem BioAssay AID651820 (National Center for Advancing Translational Sciences (NCATS), 2012)
# About 12,000 (3.5%) of roughly 340,000 compounds were called active. Inconclusive results, whose numbers are uncertain, are shown with a selection of clear calls. The call rests on the fitted dose curve; in most records, active means well fitted inhibition curve with a large enough effect; inconclusive means small, poorly fitted or top-dose-only effect, or another doubt; inactive means no such curve, though single readings can be large or run the other way. Potencies of inconclusive entries are left out as doubtful fits.
# Test: qHTS Assay for Inhibitors of Hepatitis C Virus (HCV)
# Details: Huh7.5.1 HCVcc-Cre (HCVcc is cell-culture hepatitis C virus) infection, luciferase reporter, 44 h; activity change, negative = inhibition: at 41.8 µM (top of the series) unless noted
# Outline: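 Luciferase read-out (15 sec integration) after a 15 min room-temperature substrate step quantifies HCVcc-Cre infection. Cells, 1,000 per well, had compound added 4 h post-plating, then virus at ~0.5 moi, and were cultured 44 h.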
# On the % scale 0 is the no-effect control and ±100 the full control effect; potency means the concentration at half of the fitted maximal effect; tags describe the fitted curve by direction and shape.
Compound,Potency,"activity change, negative = inhibition"
CN1CCN(S(=O)(=O)c2ccc(NC(=O)c3ccc(Br)s3)cc2)CC1,"inconclusive [inhibitor, single point]",–
Oc1ccc(/C=N/NC(=S)N2CCOCC2)cc1,–,inactive: -24.1%
CCC(=O)N/C(=N/c1nc(C)cc(C)n1)Nc1cccc(OC)c1,"inconclusive [inhibitor, partial curve]",–
COc1ccc(N2CCN(C(=O)CN3C(=O)NC(C)(C4CC4)C3=O)CC2)cc1 (centres undefined),–,inactive: 10.3%
CCOC(=O)C(C)/C(C)=N/NC(=O)c1cc2ccccc2cc1O (centres undefined),"inconclusive [inhibitor, single point]",–
COC(=O)c1ccc(N=C2S/C(=C\c3cc(C)n(-c4cccnc4)c3C)C(=O)N2C)cc1,active: 3.55 µM,–
CC(=O)c1ccc(NC(=O)c2ccc(COc3ccccc3[N+](=O)[O-])o2)cc1,–,inactive: -8.04%
CN=Cc1nc(-c2ccccc2)oc1O,–,inactive: -2.13%
COc1ccccc1/C=C/C(=O)c1cc(Br)ccc1OC(=O)c1ccco1,"inconclusive [inhibitor, single point]",–
CCCc1nnc(NC(=O)c2nc(S(=O)(=O)Cc3cccc(C)c3)ncc2Cl)s1,"inconclusive [inhibitor, single point]",–
CCOc1ccccc1-c1noc(CCC(=O)Nc2cccnc2)n1,–,inactive: 5.31%
Cc1ccc(C)c(N(C(=O)c2snc(C(N)=O)c2N)C(C(=O)NCC2CCCO2)c2cccs2)c1 (centres undefined),"inconclusive [inhibitor, single point]",–
CCOc1ccc(NC(=O)COc2ccc(C(=O)NC(C)c3ccc(S(N)(=O)=O)cc3)cc2OC)cc1 (centres undefined),–,inactive: -8.95%
CC(=O)Nc1ccc(/C(C)=N/Nc2nc(Nc3ccccc3)nc(N3CCOCC3)n2)cc1,"inconclusive [inhibitor, full curve]",–
CCn1c2ccccc2c2nnc(SCC(=O)c3c(N)n(C)c(=O)n(C)c3=O)nc21,"inconclusive [inhibitor, single point]",–
CS(=O)(=O)N(Cc1ccccc1)c1ccc(C(=O)Nc2ccccc2C(=O)O)cc1,–,inactive: 6.45%
COc1ccc(CN(C(=O)c2nsc(Cl)c2Cl)C(C(=O)NC2CCCC2)c2ccc(OC)cc2)cc1 (centres undefined),–,inactive: -8.08%
C=CCn1c(SCc2c(C)noc2C)nc2cc(C(=O)O)ccc2c1=O,–,inactive: 22.2%
O=C(NCc1ccccc1)c1ccc(N2CCC3(CC2)CC(c2ccccc2)=NO3)c([N+](=O)[O-])c1,"inconclusive [inhibitor, partial curve]",–
O=[N+]([O-])c1ccc(N2CCN(S(=O)(=O)c3ccccc3)CC2)cc1N1CCc2ccccc2C1,"inconclusive [inhibitor, single point]",–
COc1cccc(N(CC(=O)Nc2ccc3c(c2)OCO3)S(=O)(=O)c2ccccc2)c1,"inconclusive [inhibitor, single point]",–
Cc1ccc(NC(=O)c2cc(C)n(-c3cccc(C)c3)c2C)cc1,"inconclusive [inhibitor, partial curve]",–

Compound,Potency,"activity change, negative = inhibition"
NC(N)=NN=C(c1ccc(F)cc1)c1ccc(C(F)(F)F)cc1,"inconclusive [inhibitor, partial curve]",–
CCOc1ccc(C(=O)NCC(=O)NC(C)CCc2ccccc2)cc1OCC (centres undefined),"inconclusive [inhibitor, single point]",–
COCCN=C1Sc2nc3ccc(C)cc3cc2CN1Cc1ccco1,–,inactive: -22.1%
CCC(C)(C)NC(=O)c1cc([N+](=O)[O-])ccc1N1CCCCC1,"inconclusive [inhibitor, full curve]",–
Cc1ccc(S(=O)(=O)NCC(=O)NCC(=O)OC(C(=O)NC(N)=O)C(C)C)cc1C (centres undefined),–,inactive: 2.35%
CCn1c(SCC(=O)c2[nH]c(C)c(C(C)=O)c2C)nnc1-c1ccccc1,active: 5.62 µM,–
C#CC(CC)(CC)NC(=S)Nc1cccc(C(C)=O)c1,"inconclusive [inhibitor, single point]",–
Cn1c(=O)n(C)c2cc(S(=O)(=O)Nc3ccc(F)cc3)ccc21,"inconclusive [inhibitor, partial curve]",–
CCCCc1ccc(NC(=O)C(=O)NCCN2CCN(Cc3ccc([N+](=O)[O-])cc3)CC2)cc1,"inconclusive [inhibitor, partial curve, poor fit]",–
O=S(=O)(c1cnccc1N1CCN(CCO)CC1)N1CCCCC1,–,inactive: 20.1%
Cc1nn(CC(=O)N2CCC(C(N)=O)CC2)c(=O)c2nn(-c3ccccc3)c(C)c12,–,inactive: 21.8%
COc1ccc(-c2c(-c3cc(OC)cc(OC)c3)n(C)c3ccc(-c4ccc(S(N)(=O)=O)cc4)cc23)cc1,active: 10 µM,–
Cc1cc(C)nc(SCC(=O)Nc2sc3c(c2C#N)CCC(C)C3)n1 (centres undefined),"inconclusive [inhibitor, full curve]",–
Cc1cccc(N2CCN(C(=O)C3CCN(S(=O)(=O)N4CCOCC4)CC3)CC2C)c1 (centres undefined),"inconclusive [inhibitor, single point]",–
Cc1cc(C)nc(SCc2ccc(C(=O)N/N=C/c3cccc(O)c3O)cc2)n1,active: 12.6 µM,–
Cc1ccc(-c2ccc(C(=O)Nc3ccccc3)o2)c2ccccc12,"inconclusive [inhibitor, partial curve]",–
CC1CCN(c2c(NCc3ccc(C(=O)N4c5ccccc5CC4C)cc3)c(=O)c2=O)CC1 (centres undefined),–,inactive: -6.26%
COc1ccc(NC(=O)C23CC4CC(C2)CC(c2ccc(C)cc2)(C4)C3)cc1,"inconclusive [inhibitor, single point]",–
O=C(CN1CCN(S(=O)(=O)N2CCCCCC2)CC1)Nc1cc(Cl)ccc1Cl,"inconclusive [inhibitor, partial curve]",–
O=C(Nc1cc(Cl)ccc1-n1cncn1)c1ccccc1OC(F)F,"inconclusive [inhibitor, partial curve, poor fit]",–
CCOC(=O)CC(C#N)c1c[nH]c2ccccc12 (centres undefined),–,inactive: -5.45%
COc1cc(NC(=O)C2CCCN(S(=O)(=O)c3ccc4[nH]c(=O)ccc4c3)C2)cc(OC)c1 (centres undefined),"inconclusive [inhibitor, partial curve]",–
